Screen size: about 370,000 compounds; about 150 (0.041%) were called active. Inconclusive results, whose numbers are uncertain, are shown with a selection of clear calls. Calls follow the shape of the dose curve; as a rule, active = well fitted inhibition curve with a large enough effect; inconclusive = small, poorly fitted or top-dose-only effect; inactive = flat fitted curve, though single readings scatter. No potency is given beside an inconclusive call; the fits are too rough.
These compounds were tested against Beta-lactamase (Escherichia coli (strain K12)) (UniProt P00811) (assay: qHTS Inhibitors of AmpC Beta-Lactamase (assay with detergent)). Settings: AmpC hydrolysis of nitrocefin, absorbance 480 nm, 0.01% Triton; series mostly up to 114 µM.
Procedure, shortened: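 AmpC (5.3 nM in the dispensed reagent) in 20 mM phosphate pH 7.0 with 0.01% (detergent screen) or 0.0001% Triton X-100 was preincubated with compounds for 15 min at room temperature. Nitrocefin was then added from an 800 uM solution, and hydrolysis was followed at 480 nm.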
Also: nearly all actives have a fitted effect of over 25% in size.
Potency is read from the fitted curve at half-maximal effect; tags tell the direction and shape of the fitted curve.

Sequence of UniProt P00811 (P00811 whole entry, looked up): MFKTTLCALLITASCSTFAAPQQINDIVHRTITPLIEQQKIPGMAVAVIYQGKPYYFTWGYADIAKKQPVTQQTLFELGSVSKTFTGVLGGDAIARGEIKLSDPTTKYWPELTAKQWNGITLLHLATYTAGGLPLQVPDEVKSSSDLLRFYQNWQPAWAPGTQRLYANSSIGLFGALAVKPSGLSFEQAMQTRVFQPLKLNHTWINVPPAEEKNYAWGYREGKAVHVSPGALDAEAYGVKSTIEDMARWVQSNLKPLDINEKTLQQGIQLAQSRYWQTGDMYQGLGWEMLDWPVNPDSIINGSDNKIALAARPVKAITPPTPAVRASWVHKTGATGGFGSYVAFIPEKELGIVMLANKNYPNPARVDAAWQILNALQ

SMILES	Potency
Cc1ccnc(N2C(=O)c3ccccc3C2Nc2cccc(C)c2C)c1 (centres undefined)	inconclusive [inhibitor, full curve, poor fit]
C=CCn1c(=O)c2ccccc2n2c(SCc3nnc(-c4ccccc4Br)o3)nnc12	inconclusive [inhibitor, full curve]
CCC(=O)Nc1c(C)ccc2nsnc12	inactive
O=S(=O)(c1ccccc1)c1nnn2c1nc(NCc1ccc(F)cc1)c1sccc12	inactive
Cc1ccc(CN2C(=O)N/C(=C/c3cc(C)n(-c4ccccn4)c3C)C2=O)cc1	inconclusive [inhibitor, full curve, poor fit]
COc1cc(/C=N/Nc2nc(Nc3ccccc3)nc(-n3nc(C)cc3C)n2)cc(OC)c1OC	inactive
CCCc1cc(=O)[nH]c2nnc(SCC(=O)Nc3nnc(SCC)s3)n12	inconclusive [inhibitor, partial curve, poor fit]
CNC(=O)c1c(NC(=O)c2nc3ccccc3s2)sc2c1CCC2	inactive
O=C(Cc1ccccc1)Nc1c(Cl)ccc2nsnc12	inconclusive [inhibitor, full curve, poor fit]
CNCCCN1c2ccccc2CCc2ccccc21	inconclusive [inhibitor, full curve, poor fit]
COc1ccc(CCNC(=O)CNS(=O)(=O)c2ccc(N(C)C)c([N+](=O)[O-])c2)cc1OC	inactive
Cc1ccnc(NC(=O)CCN2C(=O)c3ccccc3S2(=O)=O)n1	inconclusive [inhibitor, single point]
COCCCn1c(=N)c(C(=O)NCc2ccco2)cc2c(=O)n3ccccc3nc21	inactive
Fc1cccc(NC(=S)Nc2ccc(Br)cc2)c1	inactive
CCOc1ccc(CCNC(=O)COC(=O)c2cc(OC)c(OC)cc2[N+](=O)[O-])cc1OCC	inconclusive [inhibitor, partial curve]
CCOC(=O)N1CCN(Cc2nc3cc(NC(=O)c4ccccc4[N+](=O)[O-])ccc3n2C(C)C)CC1	inactive
O=S(=O)(c1ccc(Cl)cc1)c1snnc1-c1ccccc1	inconclusive [inhibitor, full curve, poor fit]
CSc1cccc(NC(=O)CCCOc2ccc(Cl)cc2Cl)c1	inconclusive [inhibitor, full curve, poor fit]
COc1ccc(/C=N/NC(=O)c2ccc(Cn3cc([N+](=O)[O-])cn3)o2)cc1O	inconclusive [inhibitor, full curve, poor fit]

— PubChem BioAssay AID485294 (National Center for Advancing Translational Sciences (NCATS), 2010)
